The values below come from the supplement of paper PMC9446081.

Out of some 39,000 compounds screened, about 220 (0.56%) showed activity. Some of the results follow.
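Note: static incubation at 37 °C against the wild-type strain, values averaged over two biological replicates.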

The subject of the experiment is Escherichia coli K-12 BW25113. The experiment can be described thus: relative growth (OD600 normalised to plate interquartile mean) (fraction); higher = less growth inhibition, active = 0.2 or less. As to conditions: 50 µM; LB; incubation time: overnight (16-24 h).
Regarding `Cc1noc(C)c1NC(=O)N(C)C[C@@H]1Oc2ccc(NC(=O)CCN3CCOCC3)cc2C(=O)N([C@H](C)CO)C[C@H]1C`, the relative growth is inactive: 0.987.
The figure for `Cc1ccc[nH]c1=O` is inactive: 1; for `C[C@@H]1CN([C@@H](C)CO)C(=O)c2cc(NS(C)(=O)=O)ccc2O[C@@H](C)CCCCO[C@H]1CN(C)Cc1ccc(C(F)(F)F)cc1` it is inactive: 0.996.
With `Cc1noc(C)c1S(=O)(=O)Nc1ccc2c(c1)CC(=O)N([C@H](C)CO)C[C@H](C)[C@@H](CN(C)Cc1ccccc1)O2`, the relative growth was inactive: 0.998.
With `CN(C)C(=O)C[C@H]1CC[C@@H]2[C@H](COC[C@H](O)CN2S(=O)(=O)c2ccccc2)O1` the figure was inactive: 0.997; with `COCC#Cc1ccc2c(c1)O[C@@H](CN(C)C(=O)c1ccccc1)[C@H](C)CN([C@H](C)CO)S2(=O)=O`, inactive: 1.01.
The figure for `O=C(NCC(F)(F)F)[C@H]1[C@H](CO)[C@H]2Cn3c(cccc3=O)[C@H]2N1C(=O)C1CCC1` is inactive: 1.01.
Turning to `C[C@@H]1CCCCO[C@H](CN(C)Cc2ccccc2)[C@H](C)CN([C@@H](C)CO)C(=O)c2cc(NC(=O)CCC(F)(F)F)ccc2O1`, the relative growth was inactive: 0.988.
The figure for `C[C@@H]1CCCCO[C@H](CN(C)C(=O)c2ccccc2)[C@H](C)CN([C@H](C)CO)C(=O)c2cc(NC(=O)C3CCCCC3)ccc2O1` is inactive: 0.983; for `O=C(CC1CC1)NCc1cnc2n1CCNCC2` it is inactive: 1.01; for `CC(=O)NCCn1cccc1` it is inactive: 1.01.
With `COc1ccc2occ(C(C)=O)c2c1` the figure was inactive: 0.977.
With `C[C@@H]1CCCCO[C@@H](CN(C)Cc2ccc3c(c2)OCO3)[C@H](C)CN([C@H](C)CO)C(=O)c2cc(NC(=O)Cc3ccccc3)ccc2O1` the figure was inactive: 1; with `COc1ccc(NC(=O)Nc2ccc3c(c2)C(=O)N([C@H](C)CO)C[C@H](C)[C@@H](CN(C)S(=O)(=O)c2ccc(F)cc2)OCCCC[C@@H](C)O3)cc1`, inactive: 1.
As for `O=C(CS)NCCCCCCNC(=O)[C@@H]1C[C@@H]2C(=O)N[C@@H](Cc3ccccc3)C(=O)N2[C@@H]1c1ccc(O)cc1`, the relative growth is inactive: 0.996.
As for `O=C(O)[C@H](O)[C@@H](O)[C@H](O)[C@H](O)CO`, the relative growth is inactive: 0.975.
The figure for `C[C@H]1CN([C@@H](C)CO)C(=O)c2c(c3ccccc3n2C)-c2ccccc2CO[C@@H]1CN(C)Cc1ccc(Cl)c(Cl)c1` is inactive: 0.978; for `COC(=O)[C@@H](Cc1ccc(-n2cc(C(=O)NO)nn2)cc1)N1CC(/C=C/C2CC2)=C[C@H]1[C@H](O)Cc1ccccc1` it is inactive: 1.01; for `C[C@@H]1CN([C@H](C)CO)C(=O)c2cccc(NC(=O)Nc3ccc4c(c3)OCO4)c2O[C@H]1CN(C)Cc1ccc(C(F)(F)F)cc1` it is inactive: 0.854.
